According to the supplement of paper PMC11417369:
This is one part of the list.

The sequences below were run on PfAP2-HC AP2 domain (GST-tagged) (assay: gcPBM binding intensity (ln(normalized median fluorescence intensity)); higher = stronger DNA binding).
Procedure, shortened: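 DNA-binding domains from P. falciparum, fused to GST and produced in E. coli, were put on an Agilent 4 × 180k double-stranded probe array for 1 h in 1× PBS holding 1% milk, 0.2 mg/ml BSA, 0.5% salmon testes DNA and 0.03% Triton X-100. Probes were primer-extended, 36 bp long and drawn from intergenic genomic regions, with negative controls included. After Alexa488 anti-GST antibody detection and a 488 nm scan, binding intensity was set as the highest Masliner-normalised natural-log median intensity across replicate spots of either probe orientation.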

| Sequence | gcPBM binding intensity (ln) |
| --- | --- |
| TATATATCAAGACACACACACATATATTTATTTATA [CACACA_site7733] | 11.2 |
| GATAATTTATTTTTTCGTACACAAAATATAATATAT [XGTACX_site1470] | 9.57 |
| TTATAATATGTATACACACACATATATAAATATATA [CACACA_site2326] | 9.92 |
| TTTTGTTATATACAATAGATCAGAAGAAATGAAGTT [CACACA_negctrl_site1579] | 9.62 |
| CAATGTTAACATATTACACACATATGTATATAGAAT [CACACA_site2732] | 9.9 |
| CTTACGTATTAAGTGTGTCCGTAGTGTTCATAGTTC [XGTACX_site8913] | 9.72 |
| AAAATTTATAAAAGCACACAAAATAAAAAAAAATGA [CACACA_site1491] | 9.88 |
| TGTACGAGTCGTAGAGTGCAGTCTGGAGAAGAGTAC [GTGCAC_site9684] | 9.69 |
| TATATATGTATATATTTTATAAGTATGCAAGAAAAT [TGCATGCA_negctrl_site486] | 9.67 |
| ATATTGGAATAAATTTGTACATATATATATTATTCA [XGTACX_site916] | 9.53 |
| ACATAATGCTAGACACGTACGTACATCCGTGAGGTT [XGTACX_site4156] | 9.79 |
| TTATTATTATATTCTACATGCAGTTTGTGTAGAACA [TGCATGCA_site455] | 9.6 |
| TGAACTCAACAAAGGGTGCATAACAAAAATAGACGT | 9.84 |
| GTAAAAGAACGGCATGCATGAAAAATATTACACATG [TGCATGCA_site143] | 9.93 |
| AATATATGGTTTCATGATATTAAATACAATTTAATG [CACACA_negctrl_site1503] | 9.45 |
| ATATATATATGTATATGTACTTATATTATTGTTTGT [XGTACX_site1466] | 9.78 |
| CTATAATTATGATGAAGTACATATGAGTTCAAAAAA [XGTACX_site3070] | 9.59 |
| AAAGTAAATTTAAGCACACACAACGAATTTTTATAC [CACACA_site1959] | 10.9 |
| TTTCAATAATAAAAAACACACACAAAAAAAAATAAT [CACACA_site8905] | 11 |
| AAAAATATAAACACCAGTACACAAACCTATAATGGA [XGTACX_site3846] | 10.5 |
| GCATATAAAATAAATCGTACATGTAAAACATAATTA [XGTACX_site7077] | 9.72 |
| TTTTTTTTTTTTATATGTACTAATAATCTTTTTTTT [XGTACX_site3552] | 9.5 |
| AATATTTTATATGTAGTGCATTACTATAGGATTTAT [GTGCAC_site9424] | 9.63 |

| Sequence | gcPBM binding intensity (ln) |
| --- | --- |
| GCTGAAAGGATAAAGGTGCATATTTTTTAAAAAATT [GTGCAC_site9487] | 9.43 |
| TGTGTCAAATAATTAATGTCATATATATTTTGTATA [CACACA_negctrl_site1479] | 9.57 |
| ACAAAATAAACGGCTGCACACAAGAAGCACAATATT [CACACA_site3690] | 10.6 |
| GATAGAAAAAAATAATGTACACACACATATATGTTT [XGTACX_site392] | 10.1 |
| GGCAGCAATTTAGTTACACACATATATAGGTATACA [CACACA_site76] | 9.76 |
| TTTCTTTTTTCTGTTATTATTATAAAACGATATTTA [TGCATGCA_negctrl_site167] | 9.58 |
| TACACATACCCATACACACGCATAGAAACATACGAA [CACACA_site5212] | 10.2 |
| TATTTTTATTTTAATTGTACTTTTTAATTAATAATA [XGTACX_site8302] | 9.15 |
| ATACATATTCTTATTTGTACTTATTATAAAATGGTC [XGTACX_site6584] | 9.56 |
| TAACTGATATATAAAACACACATCATAAAAATATAA [CACACA_site6499] | 9.78 |
| TTGCATCTACATTTATGTACATATCTTATGATAAAT [XGTACX_site2146] | 9.95 |
| ACAATAATTTCCATCACACATATATTTATATATTAC [CACACA_site6003] | 9.8 |
| AGATATATTTTTTAAATTTAAAAATTATAAAATTTA [CACACA_negctrl_site533] | 9.33 |
| AAATATATCTTCTTTGCACACTTAAAGGGAAGTGAT [CACACA_site343] | 9.56 |
| TTGAACCTGATAAATACACACAATATAGATTTTTTT [CACACA_site7091] | 9.65 |
| TCAAAATGTTACAAATTATGTTGGCTAAAATTTTAA [TGCATGCA_negctrl_site188] | 9.33 |
| AATTATACTCACGTTACACACACACTATATATATAT [CACACA_site9375] | 10.3 |
| TATAATATAATATTTTGTACATATGATAAAAAAAAA [XGTACX_site6858] | 9.61 |
| ACACATATAAATAAAACATGCATATGTAAATATATA [TGCATGCA_site403] | 10.1 |
| ATTTATATATAATATACACACATATAATACCCATAT [CACACA_site4548] | 10 |
| TTTTTTAACTGTATGATGTTATATTAAAAATAAAAA [GTGCAC_negctrl_site463] | 9.12 |
| AACGCACGAGGACACACACACATATTTATATTTATA [CACACA_site6608] | 11.4 |
| TTTAATATTAGCATATGTACACAAATCACACGGAAA [XGTACX_site2473] | 9.79 |

| Sequence | gcPBM binding intensity (ln) |
| --- | --- |
| TATATTATGACCACCACACACCTATACACATAACAT [CACACA_site7199] | 10.1 |
| TAATCCTTTCAATATTGTACACATTTGTGTTAAGAA [XGTACX_site1275] | 9.56 |
| ATTTAAAAAAAAAAAAAAAAAAAAAAAAAAAGAAAA [CACACA_negctrl_site722] | 9.02 |
| ATATATTTTATATAATGTACATAAACCGCACACATA [XGTACX_site6061] | 9.94 |
| TTTCAAATTTAATACACACACAAGTATATATCTATC [CACACA_site7782] | 10 |
| ATAATATAAATACAAACACACAATTGCGTCCACATT [CACACA_site5039] | 10.1 |
| TCATACGAAATATAAACACACATACAATAAATAAAT [CACACA_site5156] | 10.3 |
| ATTTAATTTGTTCTTACACACACATATATATATATT [CACACA_site8310] | 10.2 |
| TCAAATATATAGAATACACACATGGATATAAGAAAT [CACACA_site4065] | 10 |
| CGTTTTAATAAGATCACACATATAATATATATATAT [CACACA_site5159] | 9.59 |
| ATTATAACCATATACACACCCATATAAATAAATATA [CACACA_site6926] | 10.5 |
| GGACAAGAATAGTGCACATGCAATGTTATTTTTTAT [TGCATGCA_site450] | 9.77 |
| ATATTAAATGTTATCACACACATAATTACTTCCATA [CACACA_site7160] | 10 |
| TATTAAATGGCCATTACATGCAATTATTTCTAATAA [TGCATGCA_site275] | 9.43 |
| GAATAATATGGACATACACACATATACATACATATA [CACACA_site2114] | 10.1 |
| TTATTTCATTCTTGAAGTACGTGAAAAATGAAAACA [XGTACX_site4089] | 9.44 |
| ACATATGAATATAATACACACTTGTATTATTAATAT [CACACA_site8546] | 9.79 |
| AAAAAAAAAAAAAGAGTGCAAACTATGATAATTTAA | 9.79 |
| TTACCTTTATTGTATGAACACACATAAGCTGATACA [CACACA_site9334] | 9.73 |
| TTAGTTATTAAAAAAAGTACATAAGTAGATATCATC [XGTACX_site8712] | 9.66 |
| TATATATATACATATTGTACATGTGTATATTTTTTT [XGTACX_site361] | 9.75 |
| AAAATTTAATATAATGCACACATAAAAAAAAAAAAA [CACACA_site7923] | 9.68 |
| CCATTTTTTTTATACGCACACGTCATACTTTTAAAA [CACACA_site4988] | 10.1 |

| Sequence | gcPBM binding intensity (ln) |
| --- | --- |
| TATAAAATATAATTAGCACACATATATAAAATATAT [CACACA_site9355] | 9.75 |
| AATATATGTAATATATGTACTTAATTATATTTTAAT [XGTACX_site4382] | 9.57 |
| TACTAATATGATATATAAATATTGTTATATAATAAT [XGTACX_negctrl_site227] | 9.52 |
| TGAATACAAATTTACGCATGTAATTTCCAGAGGGAG [TGCATGCA_site769] | 9.64 |
| AAAATAAAAGAAAAAAGTACAAAATCAGATTAATTA [XGTACX_site8413] | 9.72 |
| GTATATTTTTAAAGGTGTACTTTTTTTTTTTTTTTT [XGTACX_site721] | 9.66 |
| ATATAAAACTATAATACACACATAAAATATATTATA [CACACA_site6588] | 9.79 |
| TATATTTATTTATTCTGTACTGAAGACAGTTATGTA [XGTACX_site8857] | 9.58 |
| ATAAATATATATATAGTGCATATAAGCCACCTTCAA [GTGCAC_site9628] | 9.69 |
| TATATAATACAACATGCACACATATATATGTGAATC [CACACA_site8794] | 9.94 |
| CGTAATAAAAACAAATGTACATGACCTGGACAGGTT [XGTACX_site6560] | 9.98 |
| AATAAGTTATTATTTTGTACACATAAATAATACGTT [XGTACX_site814] | 9.65 |
| GCACTAAAAAAATAAACACACAGATTTATATAATAT [CACACA_site1381] | 9.79 |
| AAGGAACTATAATATACACACATAAGTGTACTTATA [CACACA_site7816] | 9.78 |
| AAAAAAACGTAAAAATGTACTTTTTGTATATAACCT [XGTACX_site7950] | 9.64 |
| ATATATGCATATATTTGTACACATTTTTTTACATAA [XGTACX_site4624] | 9.76 |
| AAACAAAATAAATATGAACACACACCGTTATGCCTT [CACACA_site8347] | 10.5 |
| TATTTGTGGATTTTTACACACATTAATATATATATA [CACACA_site3375] | 9.78 |
| AGGAAAATTATGAATGGTACAGAATATATTAGGAGA [XGTACX_site6282] | 9.79 |
| TTATAAAATAAACTTACACACATGAAATATTATATT [CACACA_site1945] | 9.68 |
